Measurements reported in article PMC12040169 (PLOS Biology, 2025).
The other results are listed elsewhere or left out.

tested on: T1, C. trachomatis L2/434/Bu expressing GFP (CTL2-GFP); design: species or system HeLa; C. trachomatis total inclusion area by high-content imaging, normalised to DMSO; details: total inclusion area; 28.5 h, 10 µM; inhibitor
T1 construct: L2/434/Bu GFP intracellular growth in HeLa cells
Outline: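 Following bulk GFP and resorufin fluorescence reads, infected cells were fixed, Hoechst-stained and imaged on a high-content platform. Inclusion total area and number per well served as growth proxies; nuclei counts indicated host viability. MICs were derived as for the fluorescence assay.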

First: CCCC(CCC(=O)Nc1ccccc1Cl)C(=O)O (centres unmarked) [CBK286757]
Second: O=C(COc1ccc(Cl)cc1Br)NNC(=O)c1ccccc1O [CBK262943]
The “% of control remaining” value of the first is lower: 70.12 for the first, 115.822 for the second.

Going from `COC(=O)[C@@H]1Cc2ncn(C(C)C)c2CN1S(=O)(=O)c1ccc(C#N)cc1` [CBK288986] to `CCCc1ccc(S(=O)(=O)N2CCN(CC(=O)Nc3cc(C(C)C)no3)CC2)cc1` [CBK295629], the “% of control remaining” value rises from 87.0734 to 121.307.

Going from `Cc1cnn(CC(=O)NC(Cc2ccsc2)c2nccs2)c1` (centres unmarked) [CBK282825] to `O=C(O)c1sccc1S(=O)(=O)NCc1ccc(Cn2cccn2)cc1` [CBK296707], the “% of control remaining” value falls from 98.4321 to 77.1744.

Going from `Cc1cccc(-c2ncc(NC(=O)Cc3ccc(-c4ccccc4)cc3)nc2-c2ccc(N(C)C)cc2)c1` [CBK037567] to `CC(=O)Nc1cccc(-c2cc(NCc3ccccc3)n3nccc3n2)c1` [CBK037153], the “% of control remaining” value rises from 99.3076 to 103.261.

Going from `O=C1OC(c2ccco2)=N/C1=C/Nc1ccc(C(=O)O)cc1` [CBK265195] to `Cc1ccc(C(=O)NCC2COc3ccccc3O2)c(N2CCN(C(=O)c3ccco3)CC2)n1` (centres unmarked) [CBK076356], the “% of control remaining” value falls from 96.4638 to 93.315.

Compared with `CCNC(=O)N1CCCC(Cc2ccc(F)cc2F)(C(=O)OCC)C1` (centres unmarked) [CBK306734], `CCOC(=O)C1(Cc2ccc(F)cc2F)CCCN(C(=O)CC)C1` (centres unmarked) [CBK307012] is lower in “% of control remaining” value: 63.1105 for the first, 61.3641 for the second.

Going from `COc1ccccc1N1CCN(CCc2n[nH]c(=S)n2-c2ccccc2)CC1` [CBK262212] to `CC(Nc1nc(N2CCN(CCO)CC2)nc2ccccc12)c1ccccc1` (centres unmarked) [CBK269427], the “% of control remaining” value falls from 85.88 to 83.4971.

Compared with `COc1cc(CN2CCCN(C)CC2)c([N+](=O)[O-])cc1OC` [CBK261539], `Cc1nn(C)c(C)c1CCc1nc(CN2CCN(C)CC2)no1` [CBK306510] is lower in “% of control remaining” value: 104.991 for the first, 90.1771 for the second.

Going from `C[C@@H](NC(=O)N(Cc1ccc([N+](=O)[O-])cc1)CC(C)(C)N)c1cccc2ccccc12` [CBK004921] to `COc1ccc(CNC(=O)CCn2c(=O)oc3ccccc32)cc1` [CBK270138], the “% of control remaining” value rises from 57.2654 to 91.7117.

Compared with `CC(C)(C)OC(=O)n1cnc(CC#N)c1` [CBK000202], `CCN(Cc1ccc(C#N)cc1F)C(=O)NC(C)c1nncn1C` (centres unmarked) [CBK305888] is higher in “% of control remaining” value: 65.577 for the first, 84.4665 for the second.

Compared with `O=S(=O)(N1CCCCCC1)N1CCN(S(=O)(=O)N2CCCCCC2)CC1` [CBK269210], `O=C(CN1CCCCCC1)N1CCCC1c1n[nH]cc1-c1cccc(Cl)c1` (centres unmarked) [CBK283084] is lower in “% of control remaining” value: 110.674 for the first, 89.3664 for the second.

Going from `Cc1ccc(Cl)cc1C(=O)N[C@H]1C[C@@H](c2nnc(CO)n2C2CC2)C1` [CBK306746] to `Cc1cccc(C(=O)NC(CC(C)C)c2nnc3n2CCNCC3)c1O` (centres unmarked) [CBK307191], the “% of control remaining” value rises from 66.6027 to 91.6863.

Compared with `Cn1ncc(Cl)c1C1CCCCCN1C(=O)c1ccco1` (centres unmarked) [CBK284915], `Cc1cccc(-n2ncc3c(=O)n(CC(=O)NC4CCCCC4)cnc32)c1C` [CBK287694] is higher in “% of control remaining” value: 78.5537 for the first, 143.673 for the second.

Compared with `COc1ccc(C(C)C)cc1-c1cncc(N[C@H](C)c2ccccc2)n1` [CBK065535], `C[C@H](Nc1cncc(-c2cccnc2)n1)c1ccccc1` [CBK065807] is higher in “% of control remaining” value: 88.5027 for the first, 105.214 for the second.

First: Cc1c(S(=O)(=O)Nc2ccc(-c3ccc(F)cc3)cc2)cnn1C [CBK281418]
Second: COC(=O)[C@H]1CN(C(=O)c2cnn(C)c2C)C[C@@H]1c1ccc(F)cc1 [CBK283721]
The “% of control remaining” value of the first is lower: 87.5675 for the first, 97.7554 for the second.

First: CC(=O)N1CCc2sccc2C1c1ccc(NC(=O)c2cccc(F)c2)cc1 (centres unmarked) [CBK286466]
Second: CC(=O)c1cc(C(=O)Nc2ccc(Oc3ccc4c(c3)OCO4)cc2)cs1 [CBK286327]
The “% of control remaining” value of the first is lower: 78.0156 for the first, 96.9057 for the second.

Compared with `O=C(COC(=O)c1ccc2c(c1)C(=O)N(c1ccc(Oc3ccccc3)cc1)C2=O)c1ccc(Br)cc1` [CBK261607], `COc1ccc(Nc2cccc(-c3ccc(CCC(=O)O)cc3)n2)cc1` [CBK036943] is higher in “% of control remaining” value: 87.7412 for the first, 104.378 for the second.

First: CC(Sc1nc2ccccc2[nH]1)c1nc2ccccc2[nH]1 (centres unmarked) [CBK266502]
Second: O=C(Nc1ccccc1-c1nc2ccccc2[nH]1)c1ccncc1 [CBK270148]
The “% of control remaining” value of the first is lower: 95.7177 for the first, 99.4749 for the second.

First: CN(C(=O)c1ccccc1N)c1ccccc1 [CBK086716]
Second: O=C(CSCc1ccccc1)Nc1ccc2c3c(cccc13)CC2 [CBK264916]
The “% of control remaining” value of the first is lower: 101.18 for the first, 109.514 for the second.

First: C=CCn1c(Cc2csc(NC(=O)c3cc(S(=O)(=O)NC)ccc3C)n2)n[nH]c1=S [CBK297903]
Second: Cc1ccc(C)c(NC(=O)c2cnc3sccn3c2=O)c1 [CBK287451]
The “% of control remaining” value of the first is lower: 95.1032 for the first, 100.58 for the second.

First: Cc1ccc(C2=CCN(CC(=O)N3CCc4ccccc43)CC2)o1 [CBK283918]
Second: Cc1ccccc1CN1CC[C@@H]2[C@H](C1)[C@@H](c1ccc(F)cc1)CN2C(=O)c1cccs1 [CBK285546]
The “% of control remaining” value of the first is higher: 93.6565 for the first, 73.0912 for the second.

First: CC(NC(=O)CCc1ccncc1)c1ccc2c(c1)CCCO2 (centres unmarked) [CBK281624]
Second: O=C(O)c1cccc(CSc2nnc(-c3ccncc3)o2)c1 [CBK266310]
The “% of control remaining” value of the first is lower: 107.313 for the first, 124.243 for the second.

Going from `COc1cc(Cl)cc(CNCCO)c1OC(C)C` [CBK269196C] to `COc1ccccc1CC(=O)NC(CCSC)c1nnc2ccccn12` (centres unmarked) [CBK306492], the “% of control remaining” value rises from 73.5391 to 75.2397.

Going from `CCc1nc(CN(C)C2CCN(CC(=O)NCc3ccco3)C2)no1` (centres unmarked) [CBK305328] to `CN(C)CC1CN(C(=O)Nc2ncc(Cc3ccccc3Cl)s2)CCO1` (centres unmarked) [CBK304107], the “% of control remaining” value falls from 90.2925 to 70.731.

First: O=c1[nH]cnc2c1nc(S)n2C1OC(CO)C(O)C1O (centres unmarked) [CBK218834]
Second: O=c1cnn([C@H]2C[C@@H](O)[C@@H](CO)O2)c(=O)[nH]1 [CBK201162]
The “% of control remaining” value of the first is lower: 101.315 for the first, 124.633 for the second.

First: CCOC(=O)c1cn(CC)c2cc(N3CCSCC3)c(F)cc2c1=O [CBK307143]
Second: Cc1ccc2c(c1)cc(C)c1nn(CC(=O)N3CCCC3)c(=O)n12 [CBK283872]
The “% of control remaining” value of the first is higher: 83.0452 for the first, 73.7572 for the second.

First: CCn1cc(CN(CCCn2ccnc2)Cc2cccc(F)c2)cn1 [CBK283124]
Second: COc1cccc2ncn(CCCn3ccnn3)c(=O)c12 [CBK306650]
The “% of control remaining” value of the first is higher: 72.9977 for the first, 42.25 for the second.

Going from `C1CN2CCC1/C(=N\Nc1nnn[nH]1)C2` [CBK019005C] to `Cc1cc(C)cc(C(=O)N2CCC(NC(=O)c3cnn(C)c3)CC2)c1` [CBK305723], the “% of control remaining” value falls from 85.872 to 54.7887.

First: CN(C)S(=O)(=O)c1ccc2[nH]cc(CCN)c2c1 [CBK268522C]
Second: Cc1ccc(S(N)(=O)=O)cc1N [CBK024851]
The “% of control remaining” value of the first is higher: 142.575 for the first, 95.3062 for the second.

First: COCc1cc(C[C@H]2CNCC[C@H]2CC(=O)N2CCc3ccccc3C2)no1 [CBK289144]
Second: Cc1onc(-c2ccc(Cl)cc2)c1C(=O)N1CCN(C2CCN(C)CC2)CC1 [CBK149087]
The “% of control remaining” value of the first is higher: 90.2413 for the first, 68.3036 for the second.

Compared with `O=C(NC(c1ccccc1)c1ccco1)C1CCN(Cc2cccc(Cl)c2)CC1` (centres unmarked) [CBK148295], `Cc1ccc(S(=O)(=O)NC(C)(C)CN2CCN(C(c3ccccc3)c3ccccc3)CC2)cc1` [CBK262799] is lower in “% of control remaining” value: 110.637 for the first, 107.575 for the second.

First: CC1(C(=O)NS(=O)(=O)c2cccc(-c3nnco3)c2)CC1 [CBK304683]
Second: COc1cccc(C2=NO[C@@](CC(=O)O)(C(=O)NCc3ccccc3)C2)c1OC [CBK286641]
The “% of control remaining” value of the first is lower: 63.2373 for the first, 74.1676 for the second.

Compared with `Cc1ccc(C(=O)Nc2cc(C)nn2C)c(N2CCOCC2)n1` [CBK106221], `CC(=O)NCCSc1nc2cc(Cl)c(Cl)cc2nc1N1CCCC1` [CBK103701] is lower in “% of control remaining” value: 93.859 for the first, 76.3012 for the second.

First: COc1ccccc1C(CNC(=O)Nc1cc(C)on1)N(C)C (centres unmarked) [CBK305028]
Second: Cc1cc(NC(=O)CN(C)CCNC(=O)C2CCCC2)no1 [CBK305237]
The “% of control remaining” value of the first is higher: 92.4141 for the first, 31.3358 for the second.

Compared with `FC(F)(F)c1ccc(CN2CCC(Oc3nccnc3OC3CCCCC3)CC2)cc1` [CBK082859T], `CN(Cc1cccnc1)CC1CCCN(C(=O)Nc2ccc(Cl)cc2)C1` (centres unmarked) [CBK305428] is higher in “% of control remaining” value: 49.9625 for the first, 52.6196 for the second.

Compared with `COc1ccc(CC(=O)NCCc2nnc3ccccn23)cc1` [CBK304613], `O=C(N/N=C/c1ccc(OC(=O)c2cccs2)cc1)c1ccccn1` [CBK262178] is higher in “% of control remaining” value: 23.5321 for the first, 90.2216 for the second.

Compared with `CN1CCN(CCOC(=O)N2CCN(C(c3ccccc3)c3ccccc3)CC2)CC1` [CBK200419], `CC(C)NC(=O)c1sc2ccccc2c1C1CCN(C(=O)CCc2ccccc2)C1` (centres unmarked) [CBK285874] is higher in “% of control remaining” value: 82.9935 for the first, 106.491 for the second.

Going from `O=C1NC(=O)C(CC(=O)N2CCCC3(CCN(C(=O)c4cc(F)c(F)cc4F)C3)C2)N1` (centres unmarked) [CBK131550] to `CC(=O)NC1(c2ccccc2)CCN(C(=O)Nc2ccccc2-c2ccccc2)CC1` [CBK286288], the “% of control remaining” value rises from 83.418 to 111.449.

Compared with `Oc1ccc(NCc2ccc(OCc3cccs3)cc2)cc1` [CBK266586], `Clc1cc(Nc2cccc(OCc3ccccc3)c2)n2nccc2n1` [CBK037109] is higher in “% of control remaining” value: 99.5897 for the first, 108.395 for the second.

Compared with `Cc1ccc2ncnc(NC(CC(C)C)C(=O)O)c2c1` (centres unmarked) [CBK275388], `OC12CCCON1OC(c1ccccc1)C2` (centres unmarked) [CBK006752] is lower in “% of control remaining” value: 105.695 for the first, 84.1889 for the second.
